Like-named read-outs stand apart in the source and are kept apart here.
Columns and labels:
PSMA receptor = PSMA receptor (Homo sapiens, UniProt Q04609); assay: Competition ligand binding on LNCaP carcinoma cell membranes against 131I-MIP1095
Description: An important advantage of the compounds described herein is their high affinity to the PSMA receptor present on prostate cancer cells. Competition ligand binding in vitro studies carried out on LNCaP carcinoma cell membranes allowed for determination of IC50 values, namely the concentrations at which the dissociation equilibrium is maintained. The studies were carried out using 96-well plates equipped with filters, to which the identical amount of membranes was applied.

[1] = Biodistribution of 99mTc-labelled PSMA preparations in healthy BALB/c mice; assay type: in vivo; details: 99mTc-labelled preparations, 4 h p.i.v.
Description: In comparative biodistribution studies on three PSMA preparations labelled with 99mTc, healthy BALB/c mice (males with body weight of 18-27 g) were used. 0.1 mL preparations with the activity of around 6 MBq were administered to the tail vein. After 4 hours of p.i.v. administration, animals were subjected to inhalation euthanasia and then required organs were collected and weighted, and the radioactivity accumulated therein was measured. Preparation accumulation in selected organs or tissues is given as % ID (percentage of injected dose) and % ID/g (percentage of injected dose per gram of the organ or tissue). […]

[2] = Solubility according to Ph. Eur.
[3] = Stability of hydrazones in solution; details: pH=7 phosphate buffer solution
[4] = LNCaP cell membranes, competitor 131I-MIP1095, 2-hour incubation, read-out: IC50

UniProt Q04609, sequence (Q04609 whole entry): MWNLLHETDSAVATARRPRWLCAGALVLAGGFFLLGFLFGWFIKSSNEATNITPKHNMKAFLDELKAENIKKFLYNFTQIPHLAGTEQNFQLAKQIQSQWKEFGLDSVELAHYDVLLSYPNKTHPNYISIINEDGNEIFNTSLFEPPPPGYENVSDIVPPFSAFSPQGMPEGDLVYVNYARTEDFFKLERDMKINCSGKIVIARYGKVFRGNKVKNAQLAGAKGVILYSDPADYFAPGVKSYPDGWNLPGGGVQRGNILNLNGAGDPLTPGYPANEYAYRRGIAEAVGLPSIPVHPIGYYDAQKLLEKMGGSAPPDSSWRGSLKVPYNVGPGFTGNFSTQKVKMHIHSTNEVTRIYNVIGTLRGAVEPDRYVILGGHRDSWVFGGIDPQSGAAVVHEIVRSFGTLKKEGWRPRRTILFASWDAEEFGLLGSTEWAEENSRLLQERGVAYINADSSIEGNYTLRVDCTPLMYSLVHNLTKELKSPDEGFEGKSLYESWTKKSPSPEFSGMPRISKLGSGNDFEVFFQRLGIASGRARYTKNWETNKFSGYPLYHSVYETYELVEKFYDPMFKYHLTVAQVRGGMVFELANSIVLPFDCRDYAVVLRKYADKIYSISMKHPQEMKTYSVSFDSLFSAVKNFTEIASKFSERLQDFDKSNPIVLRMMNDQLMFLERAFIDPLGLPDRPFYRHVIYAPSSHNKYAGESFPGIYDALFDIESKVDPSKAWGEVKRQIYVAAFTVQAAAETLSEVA

IC50 (PSMA receptor; [4])	SMILES	Retention levels of radioactivity in kidneys compared with 99mTc-iPSMA reference preparation [1]	Solubility according to Ph. Eur. ([2]; ethanol)	Solubility according to Ph. Eur. ([2]; pH 7.4 phosphate buffer)	Solubility according to Ph. Eur. ([2]; water)	IC50 (PSMA receptor)	Stability in solution [3]
75 nM	NNc1ccc(C(=O)NCCCCCC(=O)N[C@@H](Cc2c[nH]c3ccccc23)C(=O)NCCCC[C@H](NC(=O)N[C@@H](CCC(=O)O)C(=O)O)C(=O)O)cn1 [PSMA-T3, PSMA-LTrp-6Ahx-HYNIC]	significantly lower	ethanol: soluble	very slightly soluble	water: insoluble		
	NNc1ccc(C(=O)NCC2CCC(C(=O)NC(Cc3c[nH]c4ccccc34)C(=O)NCCCCC(NC(=O)NC(CCC(=O)O)C(=O)O)C(=O)O)CC2)cn1 (centres unmarked) [PSMA-T4, PSMA-LTrp-4Amc-HYNIC]	significantly lower				80 nM	
	CN(C)c1ccc(C=NNc2ccc(C(=O)NCC3CCC(C(=O)NC(Cc4c[nH]c5ccccc45)C(=O)NCCCCC(NC(=O)NC(CCC(=O)O)C(=O)O)C(=O)O)CC3)cn2)cc1 (centres unmarked) [4-(dimethylaminebenzene)hydrazone of PSMA-T4]		ethanol: soluble	soluble	water: practicaly insoluble		stable in the pH=7 phosphate buffer solution at least for a day
719 nM	O=C(O)CCc1ccc(O)c(CN(CCN(CC(=O)O)Cc2cc(CCC(=O)NCCCCCC(=O)NCCCC[C@H](NC(=O)N[C@@H](CCC(=O)O)C(=O)O)C(=O)O)ccc2O)CC(=O)O)c1 [PSMA 11, reference compound]						
	COc1cc(C=NNc2ccc(C(=O)NCC3CCC(C(=O)NC(Cc4c[nH]c5ccccc45)C(=O)NCCCCC(NC(=O)NC(CCC(=O)O)C(=O)O)C(=O)O)CC3)cn2)ccc1O (centres unmarked) [Vanilin hydrazine of PSMA-T4]		ethanol: soluble	slightly soluble	water: practicaly insoluble		
97 nM	NNc1ccc(C(=O)NCC2CCC(C(=O)NC(Cc3ccc4ccccc4c3)C(=O)NCCCCC(NC(=O)NC(CCC(=O)O)C(=O)O)C(=O)O)CC2)cn1 (centres unmarked) [PSMA-T1, PSMA-NaI-Amc-HYNIC]		ethanol: soluble	very slightly soluble	water: slightly soluble		

SMILES	IC50 (PSMA receptor; [4])	Retention levels of radioactivity in kidneys compared with 99mTc-iPSMA reference preparation [1]	Solubility according to Ph. Eur. ([2]; ethanol)	Solubility according to Ph. Eur. ([2]; pH 7.4 phosphate buffer)	Solubility according to Ph. Eur. ([2]; water)	IC50 (PSMA receptor)	Stability in solution [3]
NNc1ccc(C(=O)NCCCCCC(=O)N[C@@H](Cc2ccc3ccccc3c2)C(=O)NCCCC[C@H](NC(=O)N[C@@H](CCC(=O)O)C(=O)O)C(=O)O)cn1 [PSMA-T2, PSMA-NaI-6Ahx-HYNIC]	143 nM						

From patent US11426395B2, “PSMA inhibitor derivatives for labelling with 99mTc via HYNIC, a radiopharmaceutical kit, radiopharmaceutical preparations and their use in prostate cancer diagnostics” (Narodowe Centrum Badan Jadrowych, Osrodek Radioizotopow …, priority 2019, dated 2022)
